Measured values reported in patent publication US20240417403A1, “CRYSTALLINE FORMS OF QUINAZOLINE DERIVATIVES, PREPARATION, COMPOSITION AND USE THEREOF” (Hoffmann-La Roche Inc., priority 2021, published 2024).
Counter-ions that a name gives are not always drawn. Some values that stand alone complete this part of the results.

Test: TGA and DSC/mDSC thermal analysis (characterization of forms)
Type: physicochemical
Details: for DSC, middle temperature (starred values): amorphous fumarate, *middle temperature of thermogravimetry
Protocol: In salt screening and evaluation and in polymorph study, TGA was performed using a TA Q500, TA Q5000 or Discovery 5500 TGA from TA Instruments. DSC or mDSC was performed using a TA Q200/Q2000 or Discovery 2500 DSC from TA Instruments.

[1] = fumarate forms, first DSC endotherm peak
[2] = fumarate forms, second DSC endotherm peak

DSC endotherm (° C., peak) [1] [°C] | DSC endotherm (° C., peak) [2] [°C] | DSC endotherm (° C., peak) (crystalline salts, first DSC endotherm peak) [°C] | DSC endotherm (° C., peak) (crystalline salts, second DSC endotherm peak) [°C] | DSC, middle temperature (starred values) (first thermal event) [°C] | DSC, middle temperature (starred values) (second thermal event) [°C] | Structure (SMILES)
134.5 | 166.0 | – | – | – | – | COc1ccc2ncnc(Nc3ccc(Oc4cc5ncnn5cn4)c(C)c3)c2c1O[C@@H]1CCN(C)CC1(F)F [Fumarate Type E, (R)-N-(4-([1,2,4]triazolo[1,5-c]pyrimidin-7-yloxy)-3-methylphenyl)-5-((3,3-difluoro-1-methylpiperidin-4-yl)oxy)-6-methoxyquinazolin-4-amine]
91.3 | 166.3 | 91.3 | 166.3 | – | – | COc1ccc2ncnc(Nc3ccc(Oc4cc5ncnn5cn4)c(C)c3)c2c1O[C@@H]1CCN(C)CC1(F)F [Fumarate Type B, (R)-N-(4-([1,2,4]triazolo[1,5-c]pyrimidin-7-yloxy)-3-methylphenyl)-5-((3,3-difluoro-1-methylpiperidin-4-yl)oxy)-6-methoxyquinazolin-4-amine]
– | – | – | – | 79.9 | 107.5 | COc1ccc2ncnc(Nc3ccc(Oc4cc5ncnn5cn4)c(C)c3)c2c1O[C@@H]1CCN(C)CC1(F)F [Amorphous Fumarate, (R)-N-(4-([1,2,4]triazolo[1,5-c]pyrimidin-7-yloxy)-3-methylphenyl)-5-((3,3-difluoro-1-methylpiperidin-4-yl)oxy)-6-methoxyquinazolin-4-amine]
